Molecules are shown by their SMILES. In all, about 310,000 compounds went through this assay and about 14,000 (4.5%) showed an effect of 50% or more. Effects have a minus sign here. The list shows a part of the results.
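Also: peak tail current of the secondary pulse compared with the same well before compound.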

In the test the target is human ether-à-go-go-related gene (hERG) potassium channel (human, UniProt Q12809). In words: primary screen, population patch clamp on CHO cells stably expressing hERG.
Chain of human ether-à-go-go-related gene (hERG) potassium channel (Q12809 whole entry, looked up): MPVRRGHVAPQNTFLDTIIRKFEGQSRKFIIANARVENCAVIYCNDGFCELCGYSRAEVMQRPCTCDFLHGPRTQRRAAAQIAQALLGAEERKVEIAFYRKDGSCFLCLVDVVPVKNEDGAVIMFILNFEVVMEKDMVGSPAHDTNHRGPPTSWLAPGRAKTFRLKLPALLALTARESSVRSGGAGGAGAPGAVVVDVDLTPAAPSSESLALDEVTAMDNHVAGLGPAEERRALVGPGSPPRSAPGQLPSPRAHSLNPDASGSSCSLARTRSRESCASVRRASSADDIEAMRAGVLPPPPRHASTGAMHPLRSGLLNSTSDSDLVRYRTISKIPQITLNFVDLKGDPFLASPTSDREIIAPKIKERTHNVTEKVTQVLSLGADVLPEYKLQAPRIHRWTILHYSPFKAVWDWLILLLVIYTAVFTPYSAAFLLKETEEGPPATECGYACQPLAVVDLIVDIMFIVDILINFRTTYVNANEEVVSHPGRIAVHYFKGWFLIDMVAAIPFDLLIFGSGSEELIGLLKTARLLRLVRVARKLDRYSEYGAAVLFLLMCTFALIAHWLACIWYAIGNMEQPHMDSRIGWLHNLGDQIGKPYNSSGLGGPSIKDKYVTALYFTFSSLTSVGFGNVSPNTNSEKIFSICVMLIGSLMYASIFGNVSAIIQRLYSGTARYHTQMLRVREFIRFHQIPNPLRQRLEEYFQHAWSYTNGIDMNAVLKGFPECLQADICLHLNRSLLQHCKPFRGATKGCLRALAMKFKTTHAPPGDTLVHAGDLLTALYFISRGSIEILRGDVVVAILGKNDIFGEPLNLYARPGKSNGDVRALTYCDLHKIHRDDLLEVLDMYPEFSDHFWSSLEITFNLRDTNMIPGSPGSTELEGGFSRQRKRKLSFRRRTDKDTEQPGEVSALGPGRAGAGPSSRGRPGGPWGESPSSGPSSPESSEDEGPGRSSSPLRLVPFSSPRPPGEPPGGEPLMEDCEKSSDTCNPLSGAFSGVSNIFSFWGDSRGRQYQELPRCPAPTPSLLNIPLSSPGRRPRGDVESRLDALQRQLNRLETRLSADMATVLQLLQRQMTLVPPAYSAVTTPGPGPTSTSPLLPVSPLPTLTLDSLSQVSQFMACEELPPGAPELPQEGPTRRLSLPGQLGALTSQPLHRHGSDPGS
As for `O=C(c1ccc([N+](=O)[O-])cc1)N1CCSC1c1ccccc1Cl` (stereo not drawn), the “hERG current change (%, negative = inhibition) at 10uM” value stood at 7.77%.
Next, `COc1cccc(OCc2nnc(SCc3cc(=O)[nH]c4ccccc34)o2)c1`: -11.4%; `CCOc1ccccc1NC(=O)CSc1nc(=O)n(CCCN2CCOCC2)c2c1CCCC2`: -31.1%.
The same measure for `COc1cc(N2CCOCC2)ccc1C=C1C(=O)NC(=O)NC1=O`: 24.6%; for `COc1cccc(NC(=O)c2sc(NC(=O)c3ccncc3)nc2C)c1`: -8.58%; for `O=C(CNC(=O)c1ccccc1Br)N/N=C/c1ccc(O)cc1`: 11%.
Next, `CN(Cc1ccccc1)C(=O)c1ccc(NC(=O)Cc2cccc(NC(=O)C3CCN(C(=O)C4CC4)CC3)c2)cc1`: 3.64%; `CC1CN(c2ccc([N+](=O)[O-])cc2Cl)CCN1.Cl` (stereo not drawn): -16.6%.
Consider `Cc1ccc(NS(=O)(=O)c2ccc(C(=O)N3CCCC(C(F)(F)F)C3)cc2)cc1` (stereo not drawn), for which the “hERG current change (%, negative = inhibition) at 10uM” value is given as 16%.
The same measure for `CCOC(=O)Cc1csc(N/N=C\c2ccccc2OC)n1`: 2.26%; for `CCN(C1CCCCC1)S(=O)(=O)c1ccc(S(=O)(=O)NCCc2ccncc2)cc1`: 7.48%.
Next, `CCN(CC)c1nc2ccccc2n2cnnc12`: -16.4%; `O=C(c1ccc(S(=O)(=O)Nc2ccccc2)cc1)N1CCC1`: 9.8%.
The same measure for `COc1ccc(-c2cccc(NS(=O)(=O)c3cc([N+](=O)[O-])ccc3Cl)c2)nn1`: -9.11%.
Turning to `COC(=O)CSc1nc2ccc(NC(=O)c3ccccc3C(=O)N3CCOCC3)cc2s1`, the “hERG current change (%, negative = inhibition) at 10uM” value is recorded as -13.6%.
Next, `O=C(COC(=O)/C=C/c1ccc(S(=O)(=O)N2CCc3ccccc32)cc1)NC1CCS(=O)(=O)C1` (stereo not drawn): 6.73%.
The same measure for `COc1ccc(OC(C)C(=O)Nc2cccnc2)cc1` (stereo not drawn): 4.48%; for `O=C(OCCOc1ccccc1)c1n[nH]c2ccccc12`: 5.04%; for `Cc1cc2cc(CNC(=O)C3CC3)ccc2n1C`: -17.3%.
In the case of `CSc1ncc(F)c(N(CCO)CCO)n1`, the “hERG current change (%, negative = inhibition) at 10uM” value was determined as 10.5%.
Next, `CC(OC(=O)COc1ccccc1)C(=O)NC1CCCC1` (stereo not drawn): 5.47%.
The same measure for `CCCCNC(=S)Nc1cc(S(=O)(=O)N2CCCCC2)ccc1C`: -0.674%; for `CC1CCN(CCCNC(=O)c2cn(C)c3ccc(S(=O)(=O)N4CCCC4)cc3c2=O)CC1`: 8.26%.
The same measure for `CCC(CO)n1c(SCc2cc([N+](=O)[O-])cc3c2OCOC3)nc2ccccc2c1=O` (stereo not drawn): -0.217%.

The values above are taken from article PMC4336329 (PLoS ONE, 2015).
